Publication PMC4336329 (PLoS ONE, 2015)
Hit rate of the full screen: of about 310,000 compounds, about 14,000 (4.5%) showed an effect of 50% or more. The effect is printed as a negative number. Some of the results follow.

biological target: human ether-à-go-go-related gene (hERG) potassium channel (human, UniProt Q12809); test: primary screen, population patch clamp on CHO cells stably expressing hERG
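Note: peak tail current of the secondary pulse compared with the same well before compound.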

human ether-à-go-go-related gene (hERG) potassium channel, sequence (Q12809 whole entry, looked up): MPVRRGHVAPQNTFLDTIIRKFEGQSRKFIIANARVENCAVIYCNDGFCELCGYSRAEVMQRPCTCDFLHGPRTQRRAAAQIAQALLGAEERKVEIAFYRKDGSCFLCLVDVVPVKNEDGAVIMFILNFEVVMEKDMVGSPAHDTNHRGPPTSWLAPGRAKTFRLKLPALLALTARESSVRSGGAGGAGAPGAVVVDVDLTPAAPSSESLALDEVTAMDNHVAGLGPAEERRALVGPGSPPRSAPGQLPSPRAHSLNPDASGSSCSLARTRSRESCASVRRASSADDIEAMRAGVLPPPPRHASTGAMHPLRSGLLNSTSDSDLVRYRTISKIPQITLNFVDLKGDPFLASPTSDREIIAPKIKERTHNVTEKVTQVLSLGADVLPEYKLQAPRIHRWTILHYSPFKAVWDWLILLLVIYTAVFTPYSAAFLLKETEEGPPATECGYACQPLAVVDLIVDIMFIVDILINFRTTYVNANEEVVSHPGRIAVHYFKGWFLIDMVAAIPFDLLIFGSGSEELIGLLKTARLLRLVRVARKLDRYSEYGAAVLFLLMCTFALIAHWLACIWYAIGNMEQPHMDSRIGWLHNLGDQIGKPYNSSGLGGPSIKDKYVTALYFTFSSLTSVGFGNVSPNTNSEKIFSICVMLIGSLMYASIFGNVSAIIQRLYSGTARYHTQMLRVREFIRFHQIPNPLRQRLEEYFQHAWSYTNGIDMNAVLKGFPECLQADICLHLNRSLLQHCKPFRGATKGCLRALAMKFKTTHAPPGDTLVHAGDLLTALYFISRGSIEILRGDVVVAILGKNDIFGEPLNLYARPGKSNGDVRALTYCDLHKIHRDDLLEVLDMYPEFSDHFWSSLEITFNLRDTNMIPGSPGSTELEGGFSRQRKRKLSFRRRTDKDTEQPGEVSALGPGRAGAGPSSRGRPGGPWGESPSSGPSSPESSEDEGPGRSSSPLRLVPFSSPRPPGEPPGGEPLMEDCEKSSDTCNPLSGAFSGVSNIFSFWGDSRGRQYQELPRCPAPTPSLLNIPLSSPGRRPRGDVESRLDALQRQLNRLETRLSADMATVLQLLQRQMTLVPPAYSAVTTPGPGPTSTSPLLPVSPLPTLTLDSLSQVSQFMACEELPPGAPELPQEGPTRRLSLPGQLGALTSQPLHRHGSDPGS

Structure (SMILES) | hERG current change (%, negative = inhibition) at 10uM [%]
CC(C)(C)N=C1NN=C(c2cc3ccccc3o2)CS1 | -9.99
CCc1noc(C)c1C(=O)N1CCCC(CCC(=O)NCc2cccc(OC)c2)C1 (stereo not drawn) | 20.2
O=C(NCc1ccccc1F)c1cccc(S(=O)(=O)N2CCCCCC2)c1 | 7.87
Cc1ccc(-c2cc(C#N)c(=O)n(Cc3c(Cl)cccc3Cl)c2)cc1 | -3.19
Cc1cccc(N2C(=O)CCC2=O)n1 | -5.33
O=C(Nc1ccc(S(=O)(=O)N2CCN(Cc3ccccc3)CC2)cc1)c1cnccn1 | -36.5
C=CCn1c(CCNC(=O)c2ccc(Cl)c(Cl)c2)nnc1SCCOc1ccc(OC)cc1 | -9.24
COc1ccc(OCc2nnc3n2N=C(c2ccccc2)C(CC(=O)O)S3)cc1 (stereo not drawn) | 15.2
CCOC(=O)N1CCN(S(=O)(=O)c2ccc3c(c2)SC(C)C(=O)N3)CC1 (stereo not drawn) | 1.85
COc1ccc(CC(=O)NCc2nnc(SCc3ccc(C)cc3)n2C)cc1 | 5.49
CCN(CC(=O)NCCc1ccccc1)S(=O)(=O)c1ccc(C)cc1 | -43.2
Clc1ccc(-c2cn3c(n2)CCC3)cc1 | -11.5
Cc1ccc(CN2CCN(Cc3cnc(C)s3)CC2CCO)o1 (stereo not drawn) | -1.95
Cc1ccc(S(=O)(=O)C2(C(=O)NC3CCCCC3)CC2)cc1 | -0.446
CCCc1[nH]nc2c1C(c1cc(OC)ccc1F)C(C#N)=C(N)O2 (stereo not drawn) | -15.5
O=[N+]([O-])c1ccc(N2CCN(C(=S)Nc3ccc(F)cc3F)CC2)cc1 | -18.5
CCN(CC)S(=O)(=O)c1ccc(/C=C/C(=O)OCC(=O)N(C)C)cc1 | 6.75
COCCn1c(SCc2ccc(C(=O)OC)o2)nnc1-c1c[nH]c2ccccc12 | -8.93
CCCNC(=O)C(Cc1ccc(OC)cc1)NC(=O)c1ccc(C#N)cc1 (stereo not drawn) | -50.7

Structure (SMILES) | hERG current change (%, negative = inhibition) at 10uM [%]
Cc1ccc(-c2csc3nc(CN(C)Cc4ccccc4)[nH]c(=O)c23)cc1 | 30.4
O=C(NCc1ccco1)c1cc2ccccc2o1 | 11.8
O=C(COC(=O)c1ccc(Cl)c(S(=O)(=O)N2CCCCC2)c1)NCc1ccco1 | -42.2
CC(C)c1ccc(C(=O)NNC(=O)c2n[nH]c(=O)c3ccccc23)cc1 | -6.49
Cc1ccc(NC(=O)N2CCCC2C(=O)Nc2ccc3c(c2)OCCO3)cc1 (stereo not drawn) | 4.33
CNC(=O)c1[nH]cnc1C(=O)Nc1ccc(OC)cc1 | 20.8
COc1ccccc1C1=NCc2nnc(C)n2-c2ccc(Cl)cc21 | 3.01
CCN(CC)CCN1C(=O)c2ccccc2NC1c1cccc(F)c1 (stereo not drawn) | -68.2
COc1ccc(-n2c(/C=C/c3ccc4c(c3)OCO4)nc3ccccc3c2=O)cc1 | -55.3
CCN1C(=O)/C(=C/c2cccs2)SC1=Nc1ccc(OC)cc1 | 0.839
COCc1cc(C)nc2sc3c(=O)n(-c4cccc5ccccc45)nnc3c12 | 12.7
CC1CN(C(=O)CCC(=O)N2CCN(c3ccccn3)CC2)c2ccccc2O1 (stereo not drawn) | -7.9
Cc1cc(=O)oc2cc(OCC(=O)NC3CCCC3)ccc12 | -67.2
C=CCNC(=S)/N=c1/scc(C)n1C | -3.67
CC(C)(C)C(=O)Nc1nnc(CC(=O)NCc2ccccc2)s1 | 2.83
COc1cccc(OC)c1OCCN1CCCC1 | 15.8
Cc1cc2nc(Sc3c([N+](=O)[O-])nc(C)n3Cc3ccccc3)[nH]c2cc1C | -11.4
O=C(COC(=O)/C=C/c1ccc(OC(F)F)cc1)NC1CCCCCCC1 | -3.07
O=C(/C=C/c1ccc2ccccc2n1)N1CCN(S(=O)(=O)c2ccc(F)cc2)CC1 | -52.4

Structure (SMILES) | hERG current change (%, negative = inhibition) at 10uM [%]
CCCn1c(N)c(C(=O)COc2ccc(Br)cc2F)c(=O)n(C)c1=O | 11.8
O=C(Nc1c2c(nc3ccccc13)CCCC2)c1ccccc1Br | 4.09
COc1ccc(C2=NOC(C(=O)Nc3ccc(C(C)=O)cc3)C2)cc1OC (stereo not drawn) | -11.4
O=C(NCc1ccco1)C12CC3CC(C1)CC(C(=O)NCc1ccco1)(C3)C2 | 2.32
Cc1ccc2[nH]c(=O)cc(C(=O)OCC(=O)c3ccc(F)cc3)c2c1 | 6.34
Cc1nn(-c2ccc(Cl)c(Cl)c2Cl)c(=O)c2ccccc12 | -35.2
Cc1cc2nnc(SCC(=O)NCc3cccs3)n2c(N)n1 | -8.37
C=C(C)Cn1c(-c2ccncc2)n[nH]c1=S | 33
COc1cc(OC)c(NC(=O)C2CCCO2)cc1Cl (stereo not drawn) | 1.53
O=C(CN1C(=O)NC2(CCCCC2)C1=O)Nc1ccc(F)cc1 | 2
Cc1nnc(N2CCc3ccccc3C2)[nH]c1=O | 3.3
O=C(NC1CCCCC1)c1cc(S(=O)(=O)N2CCOCC2)c(Cl)cc1Cl | 13.6
COC(=O)C1=C(c2ccc(Cl)c(C(F)(F)F)c2)C[C@@H]2CC[C@H]1N2C(=O)NC1CC1 | 2.47
CCc1ccc(OCC(=O)NNC(=O)CSc2ncnc3sc(C)c(C)c23)cc1 | 1.55
CN(CCOc1ccc(Br)cc1)CC(O)COc1ccc(C#N)cc1 (stereo not drawn) | -16.3
O=C(NCc1cccnc1)C1CCCCN1S(=O)(=O)c1ccc(F)cc1 (stereo not drawn) | -20.9
COc1ccc(C)cc1N1CC(C(=O)Nc2ccccc2N2CCCCC2)CC1=O (stereo not drawn) | -19.5
O=C(N/N=C/c1cn(Cc2ccccc2)c2ccccc12)c1ccncc1 | -11.2
O=C(c1ccc(CSc2nc3ccncc3[nH]2)cc1)N1CCCCCC1 | -28
